{
  "source": "patent US8410064B2",
  "about": "“Classical cannabinoid metabolites and methods of use thereof” (priority 2009, dated 2013)",
  "tested_on": "human UGTs",
  "test": "Glucuronidation activity across the tested human recombinant UGTs",
  "details": "UGT1A7, UGT1A8, UGT1A9, UGT1A10",
  "data": [
    {"smiles": "CCCCCc1cc(O)c2c(c1)OC(C)(C)c1ccc(C)cc1-2", "note": "[CBN, cannabinol]", "values": [
      {"measurement": "variation in substrate binding (Km) among four UGTs", "result": 17, "unit": "fold"}
    ]}
  ]
}
